Experimental data reported in PMC4336329 (PLoS ONE, 2015).
Screen size: about 310,000 compounds; about 14,000 (4.5%) showed an effect of 50% or more. The effect is printed as a negative number. The list shows a part of the results.

biological target: human ether-à-go-go-related gene (hERG) potassium channel (human, UniProt Q12809); test: primary screen, population patch clamp on CHO cells stably expressing hERG
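Further: peak tail current of the secondary pulse compared with the same well before compound.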

Sequence of human ether-à-go-go-related gene (hERG) potassium channel (Q12809 whole entry, looked up): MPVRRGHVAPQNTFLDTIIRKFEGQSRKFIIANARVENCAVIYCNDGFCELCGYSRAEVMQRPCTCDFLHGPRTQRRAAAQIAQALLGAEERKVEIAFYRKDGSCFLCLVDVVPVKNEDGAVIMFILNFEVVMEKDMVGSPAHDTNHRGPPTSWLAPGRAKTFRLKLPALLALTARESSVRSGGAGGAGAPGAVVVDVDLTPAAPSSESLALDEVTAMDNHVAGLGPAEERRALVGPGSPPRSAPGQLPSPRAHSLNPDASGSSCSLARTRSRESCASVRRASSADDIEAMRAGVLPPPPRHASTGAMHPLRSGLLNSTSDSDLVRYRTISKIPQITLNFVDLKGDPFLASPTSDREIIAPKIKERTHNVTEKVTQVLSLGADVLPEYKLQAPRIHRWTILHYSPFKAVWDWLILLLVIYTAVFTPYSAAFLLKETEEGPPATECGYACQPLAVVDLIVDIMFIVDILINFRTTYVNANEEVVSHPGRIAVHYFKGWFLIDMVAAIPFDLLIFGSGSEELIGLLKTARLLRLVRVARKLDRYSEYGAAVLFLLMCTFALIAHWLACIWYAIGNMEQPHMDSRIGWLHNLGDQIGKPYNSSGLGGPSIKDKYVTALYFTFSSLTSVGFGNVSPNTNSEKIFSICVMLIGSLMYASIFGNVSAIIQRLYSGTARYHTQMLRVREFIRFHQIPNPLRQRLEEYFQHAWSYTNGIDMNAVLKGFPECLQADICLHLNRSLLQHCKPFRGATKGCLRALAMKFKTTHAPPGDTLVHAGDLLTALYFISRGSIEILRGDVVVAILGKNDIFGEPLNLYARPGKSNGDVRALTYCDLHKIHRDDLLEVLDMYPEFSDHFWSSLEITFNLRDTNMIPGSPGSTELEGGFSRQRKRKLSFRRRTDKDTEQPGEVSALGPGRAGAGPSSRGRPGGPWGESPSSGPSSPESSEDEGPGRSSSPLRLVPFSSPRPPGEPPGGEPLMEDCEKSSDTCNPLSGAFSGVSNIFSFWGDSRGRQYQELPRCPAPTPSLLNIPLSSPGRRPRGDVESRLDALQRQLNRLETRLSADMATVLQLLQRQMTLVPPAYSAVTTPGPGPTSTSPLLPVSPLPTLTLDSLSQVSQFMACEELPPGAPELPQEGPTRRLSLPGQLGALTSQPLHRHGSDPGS

First: COc1cc(OC)cc(C(=O)NCCCCNC(=O)c2cc(OC)cc(OC)c2)c1
Second: COC(=O)c1ccc(C)c(NC(=O)Cc2coc3cc(OC)ccc23)c1
The “hERG current change (%, negative = inhibition) at 10uM” value of the first is higher: 4.94% for the first, 3.98% for the second.

First: COc1cc(/C=C/c2nc3ccccc3s2)cc(OC)c1O
Second: COc1ccc(CC(=O)Nc2ccccc2NC(=O)c2ccco2)cc1OC
The “hERG current change (%, negative = inhibition) at 10uM” value of the first is lower: -36.7% for the first, 5.87% for the second.

First: Cc1ccc(C(=O)N/C(=C/c2ccccc2)C(=O)NCC2CCCO2)cc1 (stereo not shown)
Second: COc1ccc(NC(=O)/C(=C\c2cccs2)NC(=O)c2ccco2)cc1
The “hERG current change (%, negative = inhibition) at 10uM” value of the first is lower: -21.7% for the first, -5.67% for the second.

Compared with `NC(=O)C(Cc1ccccc1)NC(=O)C12CC3CC(CC(C3)C1)C2` (stereo not shown), `CN(C)S(=O)(=O)N1CCN(c2ccccc2)CC1` is lower in “hERG current change (%, negative = inhibition) at 10uM” value: 11.6% for the first, -1.78% for the second.

First: Cl.O=C(CN1C2=NCCCN2c2ccccc21)c1ccc(Cl)cc1Cl
Second: COc1ccccc1-n1cnnc1SCC(=O)N1CC(=O)Nc2ccccc21
The “hERG current change (%, negative = inhibition) at 10uM” value of the first is lower: -79.6% for the first, -5.42% for the second.

First: Cc1cccc(N2CCN(C(=O)c3cccc(N4CCCC4=O)c3)CC2)c1C
Second: O=C1CCCN1c1ccc(S(=O)(=O)O)cc1.c1nc[nH]n1
The “hERG current change (%, negative = inhibition) at 10uM” value of the first is lower: -17.7% for the first, 15% for the second.

First: C/C(=N\OCC(=O)Nc1ccc2c(c1)OCCO2)c1ccc2c(c1)OCCO2
Second: CCOc1ccc(NC(=S)N(CCN2CCOCC2)Cc2cc3cc4c(cc3[nH]c2=O)OCO4)cc1
The “hERG current change (%, negative = inhibition) at 10uM” value of the first is higher: -4.5% for the first, -34.6% for the second.

Compared with `CC1=CC(=C(C#N)C#N)C=C(C)N1CCC(C)C`, `Cc1nc(NCCc2ccccc2F)c(C#N)c(C)c1[N+](=O)[O-]` is lower in “hERG current change (%, negative = inhibition) at 10uM” value: 14.7% for the first, 14.3% for the second.

First: CC(=O)CCc1c[nH]c2c(C(=O)O)cccc12
Second: CCN(CC(=O)NCc1ccc(F)cc1)C(=O)C(C)Oc1cccc(Cl)c1 (stereo not shown)
The “hERG current change (%, negative = inhibition) at 10uM” value of the first is higher: 5.11% for the first, -54.4% for the second.

First: COc1ccc(NC(=O)c2oc3ccc(S(=O)(=O)N4CCOCC4)cc3c2C)cc1
Second: O=C(CN1C(=O)NC(Cc2c[nH]c3ccccc23)C1=O)Nc1cccc(S(=O)(=O)N2CCCCCC2)c1 (stereo not shown)
The “hERG current change (%, negative = inhibition) at 10uM” value of the first is higher: 3.58% for the first, 1.65% for the second.

First: CN(C)C(=O)C1CC(=O)OC12CCCCC2 (stereo not shown)
Second: CCC(Oc1ccc2c(c1)C(=O)CC(C)(C)O2)C(=O)NCCN1CCCCCC1.O=C(O)C(=O)O (stereo not shown)
The “hERG current change (%, negative = inhibition) at 10uM” value of the first is higher: 4.57% for the first, -41.6% for the second.

Going from `CC(C)=CCC/C(C)=C/COc1ccc2ccc(=O)oc2c1` to `C#CCN(C(=O)c1cc(COc2ccc(C)c(C)c2)on1)C1CCCCC1`, the “hERG current change (%, negative = inhibition) at 10uM” value falls from -2.41% to -7.7%.

Compared with `Cc1[nH]c2ccc(F)cc2c1CCN(Cc1cccnc1)C(=S)Nc1ccc(F)cc1`, `CC(NC(=O)CN(c1ccc(F)cc1)S(C)(=O)=O)c1ccccc1` (stereo not shown) is higher in “hERG current change (%, negative = inhibition) at 10uM” value: -34.4% for the first, 14% for the second.

First: S=C(NCCc1ccccc1)N/N=C/c1ccc(Cl)cc1
Second: O=C(COC(=O)c1nc(Cl)ccc1Cl)NC(=O)c1ccccc1
The “hERG current change (%, negative = inhibition) at 10uM” value of the first is higher: 13.6% for the first, -4.46% for the second.

Going from `COCCCNC(=O)c1ccc(CNS(=O)(=O)c2ccc(NC(C)=O)cc2)cc1` to `Cc1ccc(-c2csc(N(CCCN(C)C)C(=O)c3ccco3)n2)cc1.Cl`, the “hERG current change (%, negative = inhibition) at 10uM” value falls from 11.8% to -74.8%.

First: Nc1ncc(-c2ccccc2)c(-c2ccc(O)cc2O)n1
Second: Oc1c(Br)cc(C=Nc2ccc3nc(-c4ccccc4)[nH]c3c2)c(O)c1Br
The “hERG current change (%, negative = inhibition) at 10uM” value of the first is lower: -12.4% for the first, 18% for the second.

First: CCN(C(=O)/C=C/c1ccc(OC)cc1)C1CCCCC1
Second: CCOC(=O)c1[nH]c2ccccc2c1NC(=O)C1CCCC1
The “hERG current change (%, negative = inhibition) at 10uM” value of the first is lower: -0.943% for the first, 3.28% for the second.

Compared with `O=C1c2ccccc2C2(c3ccccc3)NCCCN12` (stereo not shown), `N#CC1=C(Nc2ccccc2Cl)SC(c2ccccc2O)NC1=O` (stereo not shown) is higher in “hERG current change (%, negative = inhibition) at 10uM” value: 19% for the first, 22.1% for the second.

Compared with `Fc1ccc(OCc2nc(-c3cccs3)no2)cc1`, `O=C(CCC1COc2ccccc2O1)Nc1ncccc1O` (stereo not shown) is higher in “hERG current change (%, negative = inhibition) at 10uM” value: -9.58% for the first, 3.51% for the second.

Going from `COC(=O)C1=C(NC(=O)c2ccccc2C)CCS1` to `O=C(O)C1CCCCC1C(=O)Nc1ccc(F)cc1F` (stereo not shown), the “hERG current change (%, negative = inhibition) at 10uM” value falls from 33.7% to -10.4%.

Compared with `Cc1nc(-c2ccc(S(=O)(=O)N3CCN(C(c4ccccc4)c4ccccc4)CC3)s2)cs1`, `O=C(CCc1ccccc1Cl)NC1CCCN(c2ccc(C(F)(F)F)cn2)C1` (stereo not shown) is higher in “hERG current change (%, negative = inhibition) at 10uM” value: 1.22% for the first, 13.4% for the second.

In the case of `Cc1nccn1CCCNCc1c(C(=O)N2CCCCCCC2)nc2ccc(Cl)cn12`, the “hERG current change (%, negative = inhibition) at 10uM” value is reported as -24.5%.
